Measurements from PubChem BioAssay AID1508642 (National Center for Advancing Translational Sciences (NCATS), 2021).
The whole screen tested about 43,000 compounds, of which about 200 (0.47%) were called active. About 12% were inconclusive and are not listed. Calls follow the shape of the dose curve; as a rule, active = well fitted cell-killing curve with a large enough effect; inconclusive = small, poorly fitted or top-dose-only effect, or effect the other way; inactive = flat fitted curve, though single readings scatter. The list shows a part of the results.

Test: Cell viability qHTS assay in S16 Pmp22-F2sN cells; also: nearly all actives have a fitted effect of over 65% in size
Conditions: S16 Pmp22-F2sN Schwann cells (luciferase reporters placed in the Pmp22 gene) viability, CellTiter-Glo, 24 h; series mostly up to 57.5 µM; activity change, negative = cytotoxicity: at the top concentration
How it was run: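 CellTiter-Glo counter-screen, qHTS, 1536-well. Cells: S16(c9) Pmp22-F2sN, 500-1,000/well in DMEM + 10% FBS. Cpd 23 nL pin transfer, 24 h, 37C/5% CO2. Read: luminescence, CCD imager.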
% is scaled to controls: 0 for no effect and ±100 for the full control effect.

Compound | activity change, negative = cytotoxicity
CCc1cc2c(cc3c(=O)n(CC(=O)N4CCN(c5cccc(C)c5C)CC4)nc(CC)n32)s1 | inactive: 8.02%
CCc1ccccc1NC(=O)CCC(=O)N1CC(C)Oc2ccc(C)cc21 (stereo unspecified) | inactive: -13.2%
COc1ccc(CCNCc2c(C(=O)O)c(C)n(Cc3cccc(Cl)c3)c2C)c(OC)c1OC | inactive: -0.0714%
CCn1nnc2cc(C(=O)Nc3cc(C)ccc3C)ccc21 | inactive: -9.95%
O=C(NCc1ccc(F)cc1)C(=O)Nc1ccc2nc3n(c(=O)c2c1)CCCCC3 | inactive: 8.76%
Cc1ccc(-c2cc3ncc4c(n3n2)-c2cc(Cl)ccc2OC4)cc1 | inactive: 17.1%
COc1ccc(NC(=O)CCNS(=O)(=O)c2ccc3c(c2)CCCC(=O)N3)cc1 | inactive: 16.4%
COc1ccc(NC(=O)CC2C(=O)N(c3cccc(OC)c3)C(=O)N2CCC2=CCCCC2)cc1 (stereo unspecified) | inactive: -26.6%
O=C(Cn1cc(S(=O)(=O)Cc2ccccc2Cl)c2ccccc21)NCCc1ccccc1 | inactive: 24.3%
COc1ccc(NC(=O)c2c(NC(=O)COc3ccccc3)sc3c2CCCCC3)cc1 | inactive: -2.62%
CCOc1ccccc1CNS(=O)(=O)c1cc2c(cc1C)NC(=O)CO2 | inactive: 0.828%
Cc1ccccc1CNC(=O)CCC(=O)N1CCSc2ccccc21 | inactive: -14.2%
CC1CCC(NC(=O)C2(C)Cc3ccccc3C(=O)N2Cc2ccc(Cl)cc2)CC1 (stereo unspecified) | inactive: 7.24%
Cc1ccc(NS(=O)(=O)c2ccc3nc(-c4ccccc4)[nH]c3c2)c(Br)c1 | inactive: -3.65%
Cc1ccc(Nc2nc3ccc(C(=O)c4ccccc4)cc3n3c(C)nnc23)c(C)c1 | inactive: -0.122%
COc1ccc(-c2noc(CC(=O)Nc3cc(OC)ccc3OC)n2)cc1 | inactive: -22.8%
O=C(/C=C/c1ccc(Cl)cc1)N1CCC(c2nc3ccccc3o2)CC1 | inactive: 0.88%
CCCCN(CC)CCCNC(=O)c1cn(CC)c2ccc(S(=O)(=O)N3CCc4ccccc4C3)cc2c1=O | inactive: -24.7%
CCCn1c(=O)c2sccc2n2c(CCCC(=O)N3CCN(c4cccc(Cl)c4)CC3)nnc12 | inactive: 11%
CC(=O)c1cccc(NC(=O)CN2C(=O)CC(c3ccc(C)cc3C)=Nc3ccccc32)c1 | inactive: 5.17%
CCCCNS(=O)(=O)c1ccc2nc(-c3cccnc3)cc(C(=O)NC(C)C)c2c1 | inactive: -12.1%
Cn1nc(C(=O)N2CCN(c3ccccc3F)CC2)c2c1-c1ccccc1S(=O)(=O)C2 | inactive: -1.01%
O=C(CN1C(=O)c2cccc3cccc1c23)Nc1ccccc1Br | inactive: 3.14%
CCCC1N=C2c3ccccc3N=C(SCC(=O)NCCc3ccc(Cl)cc3)N2C1=O (stereo unspecified) | inactive: -8.07%

Compound | activity change, negative = cytotoxicity
O=C(c1cc(-c2ccc(F)cc2)on1)N1CCN(c2ccc(F)cc2)CC1 | inactive: 16%
CC(C)NC(=O)c1ccc2c(c1)nc1n2CCCCC1 | inactive: 10.1%
CCOC(=O)COc1ccc(C)cc1C(=O)c1ccn2nc(-c3ccc(Cl)cc3)cc2n1 | inactive: 8.38%
CCOC(=O)c1ccccc1NC(=O)c1cc2ccc3cccnc3c2[nH]1 | inactive: -1.99%
CCCOC(=O)CSc1nnc(-c2ccccc2)o1 | inactive: -0.136%
CCn1c(C(=O)Nc2ccc(C)cc2C)cc2sc(Cl)cc21 | inactive: -23.6%
Cc1oc2ncnc(N3CCOCC3)c2c1C(=O)NCCc1ccccc1 | inactive: 19.8%
CCOc1ccc(OCC(=O)NCCS(=O)(=O)N2CCN(c3cccc(Cl)c3)CC2)cc1 | inactive: -2.47%
Cc1cccc(NC(=O)N2CCC(N3CCN(Cc4ccccc4)C(=O)C3=O)CC2)c1C | inactive: 19.7%
CC(C)c1ccc(CNc2nc(-c3ccco3)nn2S(=O)(=O)c2ccc(F)cc2)cc1 | inactive: -24.3%
Cc1cccc(N2CCN(Cc3cc(=O)oc4cc(C)ccc34)CC2C)c1 (stereo unspecified) | inactive: 14.6%
Cc1ccccc1N1CC(c2nnc(NC(=O)c3ccco3)s2)CC1=O (stereo unspecified) | inactive: -0.54%
COc1cc(C2Nc3ccccc3-c3nnc(SCc4ccc(C)cc4)nc3O2)cc(OC)c1O (stereo unspecified) | inactive: -8.61%
CCCC(=O)Nc1cccc(-c2cn3c(C)csc3n2)c1 | inactive: 23.8%
Cc1c(Cl)cccc1NC(=O)C1CCN(c2nc3ccccc3[nH]2)CC1 | inactive: 2.83%
COC(=O)c1sccc1S(=O)(=O)N(CC(=O)Nc1ccccc1)c1ccccc1 | inactive: 14.6%
CCc1ccc(CNC(=O)c2cnc3c(C)cccn3c2=O)cc1 | inactive: -2.45%
CSc1ccc(CCNC(=O)c2cc3cc4cc(C)ccc4nc3s2)cc1 | inactive: 14.2%
Cc1ccc(Cn2c(=O)c3cccnc3n(CC(=O)Nc3cc(Cl)ccc3C)c2=O)cc1 | inactive: -3.82%
CCc1nn(CC(=O)NCCCc2ccccc2)c(=O)c2cc3ccccc3n12 | inactive: 8.82%
Cc1c(Cl)cccc1NC(=O)Cn1c(=O)n(Cc2nc(-c3ccccc3)no2)c(=O)c2cc3c(cc21)OCO3 | inactive: 16.5%
Cc1ccc(C(=O)Nc2ccc3oc(-c4ccccc4C)nc3c2)cc1 | inactive: 2.53%
CCCCNC(=O)c1ccc2c(c1)NC(=O)C(CS(=O)(=O)Cc1ccc(C)cc1)N2 (stereo unspecified) | inactive: 4.23%
CC(=O)N1CCc2c(sc3c2c(=O)n(-c2ccc(C)cc2)c(=O)n3Cc2ccccc2C)C1 | inactive: -2.44%

Compound | activity change, negative = cytotoxicity
Cc1ccc2oc(=O)n(CCNC(=O)Nc3ccc(Cl)cc3)c2c1 | inactive: -7.95%
Cc1cc(C(=O)NCc2ccccc2Cl)c2c(C)nn(-c3cccc(F)c3)c2n1 | inactive: -5.84%
O=C(NCC(c1ccco1)S(=O)(=O)c1cccs1)c1ccc(Cl)cc1 (stereo unspecified) | inactive: -10%
CCCN(C(=O)Nc1cn(CC(C)C)c(=O)c2ccccc12)c1ccc(F)cc1 | inactive: -3.94%
Cc1cc(Cl)ccc1NC(=O)CCCn1nc(C)c2c(C)n(-c3ccccc3)nc2c1=O | inactive: 1.78%
Cc1cc(C)cc(NC(=O)CSc2nc3sc4c(c3c(=O)[nH]2)CCCC4)c1 | inactive: 14%
CCC1CN(C(=O)Nc2cc(Cl)c(OC)cc2OC)c2ccccc2O1 (stereo unspecified) | inactive: 1.74%
COc1ccc(-c2noc(CC(=O)Nc3ccc(C)c(F)c3)n2)cc1 | inactive: 9.44%
COc1cc(OC)c(C2C(C(=O)Nc3ccccc3)=C(C)Nc3ncnn32)cc1OC (stereo unspecified) | inactive: 5.62%
CCCCN(C)S(=O)(=O)c1ccc(C(=O)Nc2ccc(-c3nc4ccc(C)cc4s3)cc2)cc1 | inactive: 2.54%
Cc1cc(NC(=O)c2cccn2-c2nnc(N3CCCCC3)s2)ccc1Br | inactive: -13.9%
CCN1CCN(c2oc(/C=C/c3cc(OC)c(OC)c(OC)c3)nc2C#N)CC1 | inactive: -9.79%
Cc1ccc(Cl)cc1NC(=O)c1oc2ccc(S(=O)(=O)N3CCCCCC3)cc2c1C | inactive: -0.616%
Cn1cc(S(=O)(=O)c2cccc(Cl)c2)c(=O)c2cc(F)c(N3CCCCC3)cc21 | inactive: 1.83%
O=C(NCCc1ccc(Cl)cc1)c1ccc(CSCc2cccc(Cl)c2)o1 | inactive: -6.48%
CCc1cccc(C)c1NC(=O)CSc1nc2c(c(=O)[nH]1)CCC2 | inactive: 6.87%
CCCN1C(=O)C(Cc2nc3ccccc3c(=O)n2-c2ccc(OC)cc2)c2cc(C)ccc21 (stereo unspecified) | inactive: -2.16%
Cc1cc(C)cc(OCC(=O)N2CCC(c3nc4ccccc4s3)CC2)c1 | inactive: 0.569%
COc1ccccc1C(=O)Nc1ccc(S(=O)(=O)Nc2ncccn2)cc1 | inactive: -29.7%
Cc1ccc(C)c(N2CCN(C(=O)C(CC(C)C)NS(=O)(=O)c3ccc4nc(C)sc4c3)CC2)c1 (stereo unspecified) | inactive: 1.55%
NC(=O)CSc1nc2ccc(NC(=O)COc3ccccc3Cl)cc2s1 | inactive: 17.9%
Cc1ccc(C)c(N2CCN(c3nc4ccc(C(=O)c5ccccc5)cc4n4cnnc34)CC2)c1 | inactive: 12%
Cc1cccc(OCCCn2c(CCNC(=O)C3CCCCC3)nc3ccccc32)c1 | inactive: -27.5%
COc1ccccc1CN(Cc1c(Cl)cccc1Cl)S(=O)(=O)c1ccc(Br)cc1 | inactive: -0.838%

Compound | activity change, negative = cytotoxicity
CCOc1ccc(-c2cc(C(=O)NCCc3ccc(OC)c(OC)c3)c3c(-c4ccc(F)cc4)[nH]nc3n2)cc1 | inactive: -7.22%
COc1ccc(Cl)cc1NC(=O)c1cc(S(=O)(=O)N(C)Cc2ccccc2)ccc1F | inactive: 3.49%
Cc1cccc(NC(=O)N2CCC(CN3CCCCCC3)CC2)c1C | inactive: -9.18%
CC1CCN(S(=O)(=O)c2ccc3c(c2)CCN3C(=O)Nc2ccc(Br)cc2F)CC1 | inactive: -0.519%
Cc1ccc(C2CCN(C(=O)c3cnn(-c4ccc(C)c(C)c4)c3C3CCN(C(=O)OC(C)(C)C)CC3)C2)cc1 (stereo unspecified) | inactive: 12.7%
CCOc1ccccc1C(=O)N1CCC(c2nc3ccccc3o2)CC1 | inactive: -8.71%
Cc1nc(SCC(=O)Nc2ccc(C(=O)O)cc2)n[nH]1 | inactive: -0.785%
CCc1ccccc1NC(=O)Cn1nc(N2CCN(c3ccccc3OC)CC2)ccc1=O | inactive: -0.755%
Cc1cccc(NC(=O)CN2C(=O)CSc3ccc(S(=O)(=O)N4CCCC4)cc32)c1C | inactive: 16.4%
CCOc1ccc(N(CC)S(=O)(=O)N2CCCC(C(=O)Nc3ccc(OC)c(Cl)c3)C2)cc1 (stereo unspecified) | inactive: 3.99%
Cc1nn(C(=O)c2cccc([N+](=O)[O-])c2C)c(C)c1S(=O)(=O)N1CCCCCC1 | inactive: -3.03%
O=C(Nc1ccccc1C(F)(F)F)N1CC=C(c2c[nH]c3ccccc23)CC1 | inactive: -22%
COC(=O)CC(=O)CSc1nc2cc(C(=O)NCC(C)C)ccc2c(=O)n1CCc1ccccc1 | inactive: -0.508%
COc1ccc(-c2onc(C)c2C)cc1S(=O)(=O)N1CCN(c2cc(C)ccc2C)CC1 | inactive: 3.9%
COc1ccc(-c2cc3nc(C)c(CCC(=O)NC(C)c4ccccc4)c(C)n3n2)c(OC)c1 (stereo unspecified) | inactive: 0.316%
CCOC(=O)C(C)Sc1nc(-c2ccccc2)ccc1C#N (stereo unspecified) | inactive: 19.7%
Cc1ccc(NC(=O)c2ccc3snnc3c2)cc1C | inactive: 6.38%
CCC(C)NC(=O)c1c(C)oc2nc(C)nc(N3CCOCC3)c12 (stereo unspecified) | inactive: -1.68%
COC(=O)c1ccccc1NC(=O)c1nn(-c2ccc(OC)cc2)c(=O)c2c1c1ccccc1n2C | inactive: 2.88%
COc1cccc(NC(=O)C2CCN(S(=O)(=O)c3ccc4[nH]c5c(c4c3)CCCCC5)CC2)c1 | inactive: -29.2%
COc1ccc(-c2cc(C(=O)NCCc3ccc(OC)c(OC)c3)c3c(-c4ccc(F)cc4)[nH]nc3n2)cc1 | inactive: 1.46%
CCOC(=O)c1ccc(NC(=O)Cn2c3ncccc3c(=O)n2-c2ccc(C)c(C)c2)cc1 | inactive: 0.304%
Cc1cc(C)n(-c2nc(C)c(C)c(=O)n2CC(=O)Nc2cccc([N+](=O)[O-])c2)n1 | inactive: -0.0264%
CCOc1ccc(S(=O)(=O)N2CCC(c3ccncc3)CC2)cc1 | inactive: -14.6%
